Assay results published in the RNAGym collection of RNA variant scans (doi:10.1101/gad.245936.114).
Variants at the floor of the assay are shown more often than the library holds them.

B1: tRNA (parent)
chain: CUCUCGGUAGCCAAGUUGGUUUAAGGCGCAAGACUUUAAUUUAUCACUACGAAAUCUUGAGAUCGGGCGUUCGACUCGCCCCCGGGAGAUUUUUUCCUCGAGCAA

Variants of: B1
Assay: nonsense suppression (GFP-seq) (ratio to wild type); higher = more function; SUP4oc tRNA, yeast GFP reporter sort-seq
Outline: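 To measure nonsense suppression, tRNA variants from a library carrying ~3% random mutations were integrated into the yeast genome alongside RFP and a GFP ochre reporter under galactose control. Growth took place in raffinose/galactose medium supplemented with 80 mg/L adenine, followed by sorting into GFP/RFP bins and Illumina sequencing of each bin (phred ≥30). For each variant with ≥100 reads and ≥30 cells, the bin median GFP/RFP values were weighted by its estimated cell share per bin and referenced to the unmutated parent tRNA.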

Q: With C1G G19C G61C G73U as the variant, how does the nonsense suppression read?
A: Its nonsense suppression is at most 0.026.

Q: For C1G G19U A60C U76A, which nonsense suppression is on record?
A: The nonsense suppression was at most 0.026.

Q: With C1G G19U G28U G61U G78A as the variant, how does the nonsense suppression read?
A: Its nonsense suppression is at most 0.026.

Q: For C1G G25A G65A C83G, which nonsense suppression is on record?
A: Its nonsense suppression is at most 0.026.

Q: Which nonsense suppression does the source give for C1G G25U U35G A62C G69U here?
A: Its nonsense suppression is at most 0.026.

Q: Which nonsense suppression does the source give for C1G G26A A33U C64U U70C here?
A: Its nonsense suppression is at most 0.026.

Q: Which nonsense suppression does the source give for C1G G28C here?
A: The nonsense suppression was at most 0.026.

Q: Which nonsense suppression does the source give for C1G G32A here?
A: Its nonsense suppression is at most 0.026.

Q: Which nonsense suppression does the source give for C1G G32C C72G G73C A87U here?
A: Its nonsense suppression is at most 0.026.

Q: Which nonsense suppression does the source give for C1G G32U here?
A: Its nonsense suppression is at most 0.026.

Q: Which nonsense suppression does the source give for C1G G59A G61U A87U here?
A: The nonsense suppression was at most 0.026.

Q: For C1G G61A, which nonsense suppression is on record?
A: The nonsense suppression was at most 0.026.

Q: With C1G G61C G84A as the variant, how does the nonsense suppression read?
A: The nonsense suppression was at most 0.026.

Q: Which nonsense suppression does the source give for C1G G66U G86C here?
A: Its nonsense suppression is at most 0.026.

Q: With C1G G69A as the variant, how does the nonsense suppression read?
A: Its nonsense suppression is at most 0.026.

Q: Which nonsense suppression does the source give for C1G G73C here?
A: Its nonsense suppression is at most 0.026.

Q: Which nonsense suppression does the source give for C1G G78A C81G A89C here?
A: Its nonsense suppression is at most 0.026.

Q: For C1G G78C, which nonsense suppression is on record?
A: The nonsense suppression was at most 0.026.

Q: With C1G G88C as the variant, how does the nonsense suppression read?
A: Its nonsense suppression is at most 0.026.

Q: With C1G U2A U17G G32C as the variant, how does the nonsense suppression read?
A: Its nonsense suppression is at most 0.026.

Q: Which nonsense suppression does the source give for C1G U2C U16C G78A here?
A: The nonsense suppression was at most 0.026.

Q: With C1G U2C U22C C72G G78A as the variant, how does the nonsense suppression read?
A: Its nonsense suppression is at most 0.026.

Q: Which nonsense suppression does the source give for C1G U2G A60U U76A C80U C81A here?
A: The nonsense suppression was at most 0.026.

Q: Which nonsense suppression does the source give for C1G U2G G85A G86C here?
A: Its nonsense suppression is at most 0.026.

Q: For C1G U4C A13C U17A U22G, which nonsense suppression is on record?
A: The nonsense suppression was at most 0.026.

Q: Which nonsense suppression does the source give for C1G U4C A13C U17A U22G G78U here?
A: The nonsense suppression was at most 0.026.

Q: With C1G U4C A13U C72U as the variant, how does the nonsense suppression read?
A: The nonsense suppression was at most 0.026.

Q: For C1G U4C A24G U55A, which nonsense suppression is on record?
A: The nonsense suppression was at most 0.026.

Q: Which nonsense suppression does the source give for C1G U4C C5U U63G G78A here?
A: Its nonsense suppression is at most 0.026.

Q: For C1G U4C G61C, which nonsense suppression is on record?
A: The nonsense suppression was at most 0.026.

Q: For C1G U4C U20G U57C U58A C64U, which nonsense suppression is on record?
A: The nonsense suppression was at most 0.026.

Q: With C1G U4G G7C U55C G69C C72A as the variant, how does the nonsense suppression read?
A: The nonsense suppression was at most 0.026.

Q: For C1G U8A C27G, which nonsense suppression is on record?
A: Its nonsense suppression is at most 0.026.

Q: Which nonsense suppression does the source give for C1G U8C U55G G69C here?
A: Its nonsense suppression is at most 0.026.

Q: With C1G U8G U63C G73U as the variant, how does the nonsense suppression read?
A: Its nonsense suppression is at most 0.026.

Q: With C1G U16A G19U as the variant, how does the nonsense suppression read?
A: The nonsense suppression was at most 0.026.

Q: With C1G U16C as the variant, how does the nonsense suppression read?
A: The nonsense suppression was at most 0.026.

Q: With C1G U17A G61C as the variant, how does the nonsense suppression read?
A: The nonsense suppression was at most 0.026.

Q: Which nonsense suppression does the source give for C1G U17G U21A A23U here?
A: The nonsense suppression was at most 0.026.

Q: For C1G U20G A23U C27A U76A G88U, which nonsense suppression is on record?
A: The nonsense suppression was at most 0.026.

Q: With C1G U21A A33G as the variant, how does the nonsense suppression read?
A: Its nonsense suppression is at most 0.026.

Q: Which nonsense suppression does the source give for C1G U21A G67C U71C C82U here?
A: The nonsense suppression was at most 0.026.

Q: With C1G U21A U70C U71A as the variant, how does the nonsense suppression read?
A: Its nonsense suppression is at most 0.026.

Q: Which nonsense suppression does the source give for C1G U22A here?
A: The nonsense suppression was at most 0.026.

Q: Which nonsense suppression does the source give for C1G U22C G84C here?
A: Its nonsense suppression is at most 0.026.

Q: For C1G U55C, which nonsense suppression is on record?
A: The nonsense suppression was 0.0398.

Q: Which nonsense suppression does the source give for C1G U57C G69A G78C here?
A: Its nonsense suppression is at most 0.026.

Q: With C1G U57G A60G U71A U76G as the variant, how does the nonsense suppression read?
A: The nonsense suppression was at most 0.026.

Q: For C1G U58C A62U G78U, which nonsense suppression is on record?
A: The nonsense suppression was at most 0.026.

Q: Which nonsense suppression does the source give for C1G U58C G59A here?
A: Its nonsense suppression is at most 0.026.

Q: For C1G U76A, which nonsense suppression is on record?
A: Its nonsense suppression is at most 0.026.

Q: For C1U A9C A62C, which nonsense suppression is on record?
A: Its nonsense suppression is at most 0.026.

Q: Which nonsense suppression does the source give for C1U A9C G61A U70C G84C G85U here?
A: The nonsense suppression was at most 0.026.

Q: Which nonsense suppression does the source give for C1U A9U A13C C64U here?
A: Its nonsense suppression is at most 0.026.

Q: For C1U A9U A24C A30U A33G, which nonsense suppression is on record?
A: Its nonsense suppression is at most 0.026.

Q: Which nonsense suppression does the source give for C1U A9U A24G A33G U57G G59C here?
A: The nonsense suppression was at most 0.026.

Q: For C1U A9U G15C U16G, which nonsense suppression is on record?
A: Its nonsense suppression is at most 0.026.

Q: With C1U A9U G18U as the variant, how does the nonsense suppression read?
A: Its nonsense suppression is at most 0.026.

Q: For C1U A13C C29G U63A A74U U76A G78C C79U, which nonsense suppression is on record?
A: The nonsense suppression was at most 0.026.

Q: For C1U A13C C80G, which nonsense suppression is on record?
A: The nonsense suppression was at most 0.026.

Q: Which nonsense suppression does the source give for C1U A13C C82A here?
A: Its nonsense suppression is at most 0.026.

Q: With C1U A13G as the variant, how does the nonsense suppression read?
A: Its nonsense suppression is at most 0.026.

Q: For C1U A13G A24G C83G, which nonsense suppression is on record?
A: Its nonsense suppression is at most 0.026.

Q: Which nonsense suppression does the source give for C1U A13G A24G C83U here?
A: The nonsense suppression was at most 0.026.

Q: With C1U A13U as the variant, how does the nonsense suppression read?
A: The nonsense suppression was at most 0.026.

Q: For C1U A14C, which nonsense suppression is on record?
A: Its nonsense suppression is at most 0.026.

Q: For C1U A14C G15C U76A, which nonsense suppression is on record?
A: The nonsense suppression was at most 0.026.

Q: For C1U A14G G19U C29U A62G U76A, which nonsense suppression is on record?
A: Its nonsense suppression is at most 0.026.

Q: For C1U A14G U22C C27G A30U, which nonsense suppression is on record?
A: The nonsense suppression was at most 0.026.

Q: With C1U A14U A30C G32C G59U A74G as the variant, how does the nonsense suppression read?
A: Its nonsense suppression is at most 0.026.

Q: For C1U A23C, which nonsense suppression is on record?
A: Its nonsense suppression is at most 0.026.

Q: For C1U A23G, which nonsense suppression is on record?
A: The nonsense suppression was at most 0.026.

Q: For C1U A23G C27G U63A, which nonsense suppression is on record?
A: Its nonsense suppression is at most 0.026.

Q: With C1U A23U C29G U58A G73C as the variant, how does the nonsense suppression read?
A: The nonsense suppression was at most 0.026.

Q: Which nonsense suppression does the source give for C1U A23U C72G G84C A89G here?
A: The nonsense suppression was at most 0.026.

Q: With C1U A23U G28U G61A as the variant, how does the nonsense suppression read?
A: Its nonsense suppression is at most 0.026.

Q: For C1U A24C A31G A74U C79U, which nonsense suppression is on record?
A: Its nonsense suppression is at most 0.026.

Q: For C1U A24C A54U U70A G86A, which nonsense suppression is on record?
A: Its nonsense suppression is at most 0.026.

Q: With C1U A24C A87G as the variant, how does the nonsense suppression read?
A: The nonsense suppression was at most 0.026.

Q: With C1U A24C C72U as the variant, how does the nonsense suppression read?
A: Its nonsense suppression is at most 0.026.

Q: With C1U A24C G32C C34G as the variant, how does the nonsense suppression read?
A: The nonsense suppression was at most 0.026.

Q: With C1U A24C U55G G66C C77G G85U as the variant, how does the nonsense suppression read?
A: Its nonsense suppression is at most 0.026.

Q: With C1U A24C U55G G66C C77U G85U as the variant, how does the nonsense suppression read?
A: The nonsense suppression was at most 0.026.
